Literature values in patent US11033516B1, “Combination therapies with disulfiram” (Spring Discovery, Inc., priority 2020, dated 2021).

Tested on: P-glycoprotein and CYP3A4
Details: in HeLa cell; cited from earlier work

In the case of `O=C(/C=C/C=C/c1ccc2c(c1)OCO2)N1CCCCC1` [Piperine], the “IC50 value, inhibits P-glycoprotein and CYP3A4 activities” value is given as “activities with an IC50 value of 61.94 ± 0.054 μg/mL”.
